TGI and GI50 data for 80 molecules are collected here from PubChem BioAssay (NCI).

The subject of this experiment is NCI-H322M lung. Put plainly: growth of human tumour cells (NCI), 48 h.

Values joined by “and” are separate entries in the source; they are usually repeats but may differ in a detail not shown here. Equal values may be shown once.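 Five compound concentrations were applied to cells in 96-well plates for 48 hours; endpoints were derived by simple linear interpolation of the resulting dose-response curve. The concentration for 50% growth inhibition is given as GI50. TGI: total growth inhibition.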

As to `COC(=O)c1cn(CCCC(=O)O)nn1`, the TGI is > 100 µM. On the same count and under the same terms, under `Clc1ccc2c(SCC3CO3)c3ccccc3nc2c1` (stereo not given) stands 19.7 µM; under `O=S(=O)(c1ccc(Br)cc1)n1c2ccc(Br)cc2c2nc3ccccc3nc21`, > 100 µM. Turning to `CN(C)c1nc2sc3c(c2c(=O)o1)CCCC3`, the TGI was > 100 µM. For the molecule `COc1c2cc([N+](=O)[O-])cc1CNC(=O)CN1CCOCCOCCN(CCOCCOCC1)CC(=O)NC2`, the TGI is > 100 µM. As for `Cc1c2cc[nH]c(=O)c2c(C)c2c1[nH]c1cc(OCCN3CCN(C)CC3)ccc12`, the GI50 was 0.713 µM and the TGI was 9.9 µM. As for `O=c1[nH]c(=O)n(C2CC(O)C(CO)O2)cc1I` (stereo not given), the TGI is > 100 µM. Turning to `O=C(c1ccccc1)c1c(NCC(O)CN2CCCC2)n(Cc2ccccc2)c(=O)n(Cc2ccccc2)c1=O` (stereo not given), the GI50 is 20 µM and the TGI is 42.1 µM. As to `c1ccc(SC2(Sc3ccccc3)CCCC2)cc1`, the TGI was > 100 µM. Consider `O=C1Oc2ccccc2C(=O)/C1=C/N1C(=O)N/C(=C\c2ccccc2O)C1=O`, for which the TGI is > 100 µM. Turning to `NS(=O)(=O)c1ccc(NC(=O)c2ccc(NC3=C(Cl)C(=O)N(Cc4ccccc4)C3=O)cc2)cc1`, the GI50 was 32.8 µM and the TGI is > 100 µM. For `Cc1c2cnccc2c(C)c2c1c1cc(C3OCCCO3)ccc1n2C`, the GI50 is 0.35 µM and the TGI is 2.64 µM.

On to `COc1cccc2c1OC1c3ccccc3OCC1C2` (stereo not given), for which the TGI is > 100 µM. Still for that read-out and setting: under `O=C(Nc1c(O)[nH]c(=S)[nH]c1=O)c1ccccn1` stands > 100 µM; under `CN(C)CC(/C(Cc1ccccc1)=N\NC(=O)C[n+]1ccccc1)c1ccccc1` (stereo not given), > 100 µM; under `Cc1ccc(C(=O)O/N=C2/CCCC/C2=C\c2ccccc2)cc1`, > 100 µM. With `CCC1(C)NN=c2s/c(=C/c3ccc(OC)cc3)c(=O)n2N1` (stereo not given), the TGI is > 100 µM. The same measure, in the same setting: under `OCCOc1ccc(-c2cc(-c3ccccn3)nc(-c3ccccn3)c2)cc1` stands 32.4 µM.

As for `COc1cccc(C2CC(c3cc(OC)c(OC)c(OC)c3)=NN2)c1` (stereo not given), the GI50 is 31 µM and the TGI is > 100 µM.

As for `Clc1ccc(-c2ccc(-c3nnc(CCc4nnc(-c5ccc(-c6ccc(Cl)cc6)o5)o4)o3)o2)cc1`, the TGI is > 100 µM. Regarding `COC(=O)C(=O)C(C(=O)Nc1cccc(C)c1C)C1Sc2ccccc2NC1=O` (stereo not given), the TGI is > 25 µM. In the case of `O=C1CSC2(CC(/C=C/c3ccccc3)=NN2c2cccc(S(=O)(=O)O)c2)N1c1nc2ccccc2s1` (stereo not given), the TGI is > 100 µM.

In the case of `O=C1OC(=O)c2c1c(-c1ccccc1)cn2-c1ccc(Cl)cc1`, the TGI is > 100 µM. Turning to `CC[P+](C)(Cc1ccccc1)c1ccccc1` (stereo not given), the TGI was > 100 µM. As for `CCOc1cc2c(cc1O)/C(=N\N)C[C@@H]1[C@@H]2CC[C@]2(C)[C@@H](O)CC[C@@H]12`, the TGI is > 100 µM. With `Cc1cccc(C(=O)c2cccc3ccccc23)c1C(=O)O`, the TGI was > 100 µM. Regarding `COc1ccc(Cn2c(C)nc3c2C(=O)c2ccccc2C3=O)cc1`, the TGI is > 75 µM. For the molecule `CC(=O)C1=C(O)C=C2Oc3c(C(=O)/C=C/c4cc(C(F)(F)F)cc(C(F)(F)F)c4)c(O)c(C)c(O)c3[C@]2(C)C1=O`, the GI50 is 0.508 µM and the TGI came out at 2.75 µM. With `O=C(Nc1ccc(Cl)cc1Cl)c1ccc(NC2=C(Cl)C(=O)N(Cc3ccccc3)C2=O)cc1`, the GI50 is 70.2 µM and the TGI was > 100 µM. Turning to `CCOC(=O)c1cnc(-n2[nH]c(C)c(CCO)c2=O)[nH]c1=O`, the TGI was > 100 µM.

In the case of `N#Cc1cccc(N2C(=O)c3c(c(-c4ccccc4)c(-c4ccc(Sc5ccc(-c6c(-c7ccccc7)c7c(c(-c8ccccc8)c6-c6ccccc6)C(=O)N(c6cccc(C#N)c6)C7=O)cc5)cc4)c(-c4ccccc4)c3-c3ccccc3)C2=O)c1`, the TGI was > 100 µM.

`Cc1nc2c(=S)[nH]ncc2[nH]1`: the TGI was > 100 µM. On to `O=[N+]([O-])c1ccc(Nc2ccccc2-c2ccccc2)c2nonc12`, for which the GI50 is 19.2 µM and the TGI was > 85.5 µM. Consider `COC1=CC(c2ccc[nH]2)=N/C1=C\c1[nH]c(C)c(C(=O)OCc2ccccc2)c1C`, for which the GI50 is 0.697 µM and the TGI was found to be 87.5 µM. On to `COc1cc(/C(Cl)=C/C=C/C(=O)c2c(C)[n+]([O-])c3ccc(Cl)cc3[n+]2[O-])cc(OC)c1OC`, for which the GI50 was > 50 µM and the TGI was > 50 µM. The molecule `CC1=CCC[C@@]2(C)C(CC[C@@H]2C(C)/C=C/C(C)C)c2ccc(cc2C(=O)O)C[C@@H](O)CC1` (stereo not given in full) showed a TGI of 22.7 µM. Consider `O=C(c1ccc2ccccc2c1O)N1CCCCC1`, for which the TGI is > 100 µM. In the case of `Cc1ccc(S(=O)(=O)N/N=C/c2oc(-c3cccc([N+](=O)[O-])c3)c(-c3cccc([N+](=O)[O-])c3)c2[N+](=O)[O-])cc1`, the TGI is > 100 µM. With `C=C1C(=O)O[C@H]2[C@H]1CC/C(CNC(=O)/C=C/c1ccc(Br)cc1)=C\CC[C@@]1(C)O[C@@H]21`, the GI50 is 2.62 µM and the TGI was determined as 9.91 µM. In the case of `O=C(/C=C/c1ccc(B(O)O)cc1)/C=C/c1ccc(B(O)O)cc1`, the GI50 was 14.2 µM and the TGI was 28 µM. The corresponding values for `CC/C(Cc1ccccc1)=C(\c1ccc(OCCN2CCCCCC2)cc1)c1ccc(OC(=O)NCc2ccccc2)cc1` are 5.83 µM and 12.5 µM. `COc1cc(CCc2cccnc2)cc(OC)c1OC`: the TGI was > 100 µM. The same measure, in the same setting: under `N=C(c1ccccc1)N(c1ccccc1)c1ccccc1` stands > 100 µM; under `CC(C)(C)OC(=O)CN1CCNCCNCC1`, > 100 µM; under `CC1=NN(c2nc(N)nc(-c3ccccc3S(N)(=O)=O)n2)C(C)(C)C1`, > 100 µM. For `CCc1nn(CN2CCN(C)CC2)c(=S)n1/N=C\c1ccc(-c2ccc([N+](=O)[O-])cc2)o1`, the TGI was > 100 µM. For `Cc1ccccc1NC(=S)Nc1ccccn1`, the GI50 was > 100 µM and the TGI was > 100 µM. With `O=C(O)CSCc1cccc2ccccc12`, the TGI was > 100 µM. As for `C=C(C)[C@@H]1CC[C@]2(C(=O)O)CC[C@]3(C)[C@H](CC[C@@H]4[C@@]5(C)CC(=O)C(C)(C)[C@@H]5CC[C@]43C)[C@@H]12`, the TGI was > 25 µM.

With `CN(C)CCNc1ccc(C(=O)NCCCN(C)CCCNC(=O)c2ccc(NCCN(C)C)c3c(=O)c4ccccc4[nH]c23)c2[nH]c3ccccc3c(=O)c12`, the TGI was 2.22 µM. As for `C1OCC2S[C@@H]3COCO[C@@H]3C2O1` (stereo not given in full), the TGI was > 100 µM.

`Cc1ccc(C(=O)N(CCCN)[C@@H](c2nc3cc(Cl)ccc3c(=O)n2Cc2ccccc2)C(C)C)cc1`: the GI50 was < 0.01 µM; the TGI was 2.86 µM and 1.57 µM.

As to `CCSc1nnc2c(-c3ccccc3)n[nH]c2n1`, the TGI was > 100 µM.

In the case of `CNC(=O)c1cc(COc2nnc(Nc3ccc(Cl)cc3)c3ccoc23)ccn1`, the GI50 is 8 µM and > 10 µM; the TGI is 32.8 µM and > 10 µM. As for `COc1cc2c(/C=N\N=C(N)N)c(Cl)[nH]c2cc1C`, the GI50 is 2.35 µM and the TGI is 9.68 µM. For `c1csc(-c2ccc(-c3ccc(-c4ccc(-c5cccs5)s4)s3)s2)c1`, the TGI is > 100 µM. Turning to `O=C(NCCCCCCCCNC(=O)c1cnc2ccccc2n1)c1cnc2ccccc2n1`, the TGI is > 100 µM. Same read-out and setting: under `CC1=CC2CC(C)=C(CC[C@]3(C)CC[C@H]([C@@H](C)C(=O)O)OO3)C(C)(C)C2CC1` (stereo not given in full) stands 2.88 µM. `Nc1nc(CCC(=O)Nc2cccc(C(F)(F)F)c2)cc(-c2cccc3ccccc23)n1`: the TGI was > 100 µM. In the case of `CC(C)[C@](O)(c1ccc2cc(OC(F)F)c(OC(F)F)cc2c1)c1cn[nH]n1`, the GI50 is 19.9 µM and 16.6 µM; the TGI was 79.2 µM and 42.8 µM. As to `C=C(CNC(=O)Nc1ccc(-c2ccccc2)cc1)c1ccc(C(=O)Nc2ccccc2N)cc1`, the GI50 is > 100 µM and the TGI was > 100 µM. The molecule `O=C(Nc1cccc2ccccc12)Oc1ccccc1C1CCCCC1` had a TGI of 41.8 µM. With `O=S(=O)(Nc1ncccn1)c1ccc(N=Nc2ccc(O)c3ncccc23)cc1`, the GI50 was 7.59 µM and the TGI was found to be 42.8 µM. Regarding `C1CC2=C(C1)[Se]C(=C1Sc3nsnc3S1)[Se]2`, the TGI is > 100 µM. For the molecule `CC(=O)OCC1OC(Nc2[nH]c(=O)n(C)c(=O)c2-c2csc(N)n2)C(OC(C)=O)C(OC(C)=O)C1OC(C)=O` (stereo not given), the TGI is > 100 µM. With `Cc1ccc(C2CC(=O)CC(c3ccc(C)cc3)C23C(=O)NC(=O)NC3=O)cc1` (stereo not given), the TGI is > 100 µM.

With `COc1cccc([C@H]2CC(=O)c3cc4c(cc3N2)OCO4)c1`, the GI50 is 0.0722 µM and the TGI is > 100 µM. As to `N#C/C(=C\c1ccccc1O)C(N)=O`, the TGI was > 100 µM.

The molecule `COC(=O)c1c2c(cc3c1CC1(Cc4ccccc4C1=O)C3)CCC2` (stereo not given) displayed a TGI of 92 µM.

As to `Cc1[nH]c2ncn(/N=C/c3ccccc3O)c(=N)c2c1Cc1ccccc1`, the TGI was > 100 µM. As for `CCOC(=O)c1ccc(N=NN(C)C(=O)C(C)N)cc1` (stereo not given), the TGI was > 100 µM. For the molecule `COc1ccc(C#Cc2ccccc2C#CCCCCO)cc1`, the GI50 is 18.2 µM and the TGI was determined as 36.5 µM. In turn, `CC1=C(C(=O)NCc2ccccc2)C(c2ccc(C3C(C(=O)NCc4ccccc4)=C(C)NC(C)=C3C(=O)NCc3ccccc3)cc2)C(C(=O)NCc2ccccc2)=C(C)N1` displayed a TGI of 32 µM. Same read-out and setting: under `COc1cc2c(cc1O)C=NCC2` stands > 100 µM. As for `CN1CCN(c2ccc(C(=O)Nc3n[nH]c4ccc(Cc5cc(F)cc(F)c5)cc34)c(NC3CCOCC3)c2)CC1`, the GI50 was 2.73 µM and 1.75 µM; the TGI was > 10 µM and 3.71 µM. In the case of `COc1ccc(-c2nc(N)c(C#N)c3c2CCS(=O)(=O)c2ccc(C)cc2-3)cc1OC`, the TGI came out at 96.4 µM. The molecule `C=CCNC(=S)Nc1sc2c(c1C(=O)OCC)CC(C)CC2` (stereo not given) yielded a TGI of 56.5 µM. `c1ccc(CNC2CC(NCc3ccccn3)CC(NCc3ccccn3)C2)nc1` (stereo not given): the GI50 was 2.89 µM and 7.69 µM and 2.39 µM; the TGI is 8.15 µM and 25 µM and 5.6 µM. Take `O=C1NC(N/N=C\C(O)C(O)C(O)CO)=N/C1=C/c1ccccc1` (stereo not given): the TGI was > 100 µM. In the case of `CO[C@H](C(=O)[C@@H](O)[C@@H](C)O)[C@@H]1Cc2cc3cc(O[C@H]4C[C@@H](O[C@H]5C[C@@H](O)[C@H](O)C(C)O5)[C@H](O)C(C)O4)c(C)c(O)c3c(O)c2C(=O)[C@H]1O[C@H]1C[C@@H](O[C@H]2C[C@@H](O[C@H]3C[C@@H](OC)[C@H](O)C(C)O3)[C@@H](O)C(C)O2)C(O)(O)C(C)O1` (stereo not given in full), the GI50 was 0.0918 µM and the TGI is > 17.3 µM.
